Sequences with one replicate were seen in a single cluster, so their values are uncertain.
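Further: ATP exposure 15 min at 22 °C before imaging.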

The data set deals with ATP. The data set can be described thus: switch fluorescence ratio, 500 uM ATP over buffer (Cy3 cluster intensity, sum of 5 cycles each) (fold (ratio)); higher = stronger signal-on switching upon ATP binding; sequences stand for … in TCGTCGGCAGCGTCAGATGTGTATAAGAGACAGTTTTTTTTTTTTTTTTTTTTTTTTT…TC. The settings on record: aptamer strand: ATP DNA aptamer (quencher-CACCTGGGGGAGTATTGCGGAGGAAGG + anchor), 100 nM annealed; ATP concentration: 500 uM; one replicate. Summed up:
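Five buffer/ATP imaging cycles were run on Cy3-labelled switching-strand clusters on a modified Illumina MiSeq flow-cell, with NaOH stripping and re-annealing between cycles. In each cycle, clusters annealed to 100 nM quencher-labelled ATP aptamer were imaged in selection buffer, then after 15 min with 500 uM ATP at 22 °C. Per cluster, the fluorescence ratio is summed target-cycle over summed buffer-cycle Cy3 intensity, averaged per switch-domain sequence. Only clusters within 100-1000 RFU were kept.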
Take GAAGCTGTAA: the switch fluorescence ratio amounted to 1.2. AGGCTAGATG: the switch fluorescence ratio was found to be 1.02. The figure for AATTCGTCTT is 0.97; for CGCGCGGAGG it is 1.03. The same measure for ACGTCGTGCC: 0.993; for CCATATGAGC: 1.01; for GCCGGATTTT: 1.02.

For the sequence TCAAATCGT, the switch fluorescence ratio was 1.02. The figure for TATGGGGTGC is 1.04; for CGAGGATGTT it is 0.991; for ACGGATAGCC it is 1.01.

For the sequence ATCGCCGCAC, the switch fluorescence ratio came to 2.54.

As for GGTTAATGCA, the switch fluorescence ratio was determined as 0.993.

Turning to TGGGGTGTC, the switch fluorescence ratio amounted to 1.09.

As for CTTAAGGATT, the switch fluorescence ratio worked out at 1.04.

As to GCGACACGTA, the switch fluorescence ratio was 1.08. For GAATGTTCGA, the switch fluorescence ratio was 0.97. The figure for TGGCTGCAAC is 1.21.

Take GATTAGCCCG: the switch fluorescence ratio turned out to be 1. Regarding AAGAGACCTA, the switch fluorescence ratio was 1.01. The same measure for TGGCATATAG: 1.14.

Turning to AAATCTTTGT, the switch fluorescence ratio was determined as 1.02.

Take TAGGCTGGAC: the switch fluorescence ratio was 1.02.

With TTCTATTTAT, the switch fluorescence ratio came out at 1.02. The figure for CTGATAAATG is 0.96; for ATAGAAATGG it is 0.99. For the sequence CGTTTGCTTG, the switch fluorescence ratio is 1.04. The same measure for ATAGCACCA: 1.03; for GGAGCATATT: 1.72. The same measure for ACCTTTTAAT: 1.03; for ATGCTTATTT: 1.03. The figure for ATCCTAATAA is 1.05; for GCAAATCGCG it is 1. Regarding ATGAGAGGGT, the switch fluorescence ratio turned out to be 1. The same measure for GTTATAGGCG: 0.977.

AGGACTAGCC: the switch fluorescence ratio is 1.01. With GAGTAGCTTT, the switch fluorescence ratio stood at 0.984. The figure for TGTGATAGCC is 1.06. The figure for CCATCACTCA is 1.01; for ATTCAATTAT it is 1.03; for TTACGTCAAT it is 1.52. With ATGAATATTT, the switch fluorescence ratio came out at 0.97. In the case of CGGTGTATAT, the switch fluorescence ratio worked out at 1. Regarding AAGCACTTAG, the switch fluorescence ratio came to 1.12. The figure for CGGAAATTG is 0.95; for TCGTATACTT it is 1.01.

As for ATGTATTTTA, the switch fluorescence ratio stood at 1.01. As for TTAGCTCGTA, the switch fluorescence ratio is 1.01.

For TTGGACGAAT, the switch fluorescence ratio worked out at 0.989. The figure for CTTGGCAAG is 1. The figure for TCCCCGGGGA is 1.29; for ACCGGTCTTT it is 0.998; for TCTCGAATGT it is 1.05. The figure for TCGGTAGTAA is 1.1; for CTTAAGATTC it is 1.01; for TATCGCCGTG it is 1.07. Turning to GCGGTATTAG, the switch fluorescence ratio worked out at 0.963. As to GGGCGGGAG, the switch fluorescence ratio was 0.996. The figure for ATTGATTGGG is 0.996; for CACTTGACAT it is 1.11; for ATAATTAGT it is 0.994.

In the case of CGCCGCCAAG, the switch fluorescence ratio was 2.38.

With ATAGCTGTAG, the switch fluorescence ratio amounted to 1.03.

With GCGGTAGACT, the switch fluorescence ratio was 0.987.

ATAGATATAC: the switch fluorescence ratio was found to be 1.05.

Regarding GCTTTAAATC, the switch fluorescence ratio turned out to be 1.01. The figure for CTGCCGCGCG is 1.03; for GTGTCTCGTT it is 0.994.

For the sequence GCAGGGGAGA, the switch fluorescence ratio worked out at 1.04. The same measure for TAATTTATAT: 1.01. In the case of CTGGCCTCGG, the switch fluorescence ratio is 0.985.

Take GATGCACGCG: the switch fluorescence ratio was 0.983. The same measure for CAGATTCACG: 1. For CCGGGGACAA, the switch fluorescence ratio was 3.69. Take TGACTCACC: the switch fluorescence ratio turned out to be 1.54. The figure for AGTTGGTGCG is 1.04; for AGTGGTAAAA it is 1.01; for TCGAAAAATG it is 1.

With TCTGCGGGGG, the switch fluorescence ratio stood at 0.98.

For TGACCTTCA, the switch fluorescence ratio amounted to 2.27. The figure for TGCGGTTGCC is 1; for GTTTTGGGCG it is 1.01; for GGTCAAACTG it is 1.05. The same measure for GTTCCAGCAG: 1.08; for CCAATCTCGC: 1.25.

Consider TGGGAGTAGT, for which the switch fluorescence ratio turned out to be 0.987. The same measure for CGGTGGTGGT: 0.973; for GGAGTGTGAA: 1; for CAGGATTGAC: 1. The same measure for GCAATTGCTT: 0.984; for CCCAACTATT: 0.994; for GTAGTAATCG: 1.07. The same measure for ATGCCCTCCA: 0.984; for TTGTTCGTTC: 0.981; for TTTATAAAG: 1.22.

As for TAACATGAG, the switch fluorescence ratio was 0.979. With AAAGAGTGGA, the switch fluorescence ratio came out at 0.993.

Turning to TTCTCTCGGG, the switch fluorescence ratio turned out to be 1.05. On to ACAGATCATT, for which the switch fluorescence ratio worked out at 1.03.

GCGGGGACCG: the switch fluorescence ratio was 1.01.

As to GCGGCAGTGT, the switch fluorescence ratio stood at 0.997. The same measure for GGTACAGTAG: 0.999. With TGTGTTTGAT, the switch fluorescence ratio was 1.03. The same measure for GAATTGACTG: 0.917.

In the case of TGATTTGTCT, the switch fluorescence ratio is 1.01.

As for CAAGGCTCCA, the switch fluorescence ratio is 1.1. The figure for TGATGGAAAC is 0.986. Turning to ATACTTAGGA, the switch fluorescence ratio was 0.973. The same measure for CTTGCACATT: 1.01. Consider CCAGTAATTA, for which the switch fluorescence ratio turned out to be 1.01. Turning to CGGCTATAAA, the switch fluorescence ratio was 0.952.

For the sequence CATTGTATCC, the switch fluorescence ratio is 1.07. The figure for CACGGAAGAT is 1.04; for CTTTCTGTCC it is 0.973; for ACGCTAGGGT it is 1.05. The figure for AGGCCTGGTC is 1.02; for TCGCATGCAC it is 2.06. The figure for AGGGGACATC is 1.03. On to AAAGCTAAAT, for which the switch fluorescence ratio was 1.01. Turning to TGCCCCAGGG, the switch fluorescence ratio is 1.66.

These data come from the supplement of paper PMC10126150.
